# The supplement of paper PMC8728848
# This is one part of the list.
# Key:
# Assay in all cases: glycan array binding signal (z-score within array); higher = stronger binding
# Details in all cases: glycan notation: IUPAC condensed, linker removed
# [1] = target: Fuc(a1-2)[Gal(a1-3)]Gal(b1-4)GlcNAc(b1-2)Man(a1-3)[Fuc(a1-2)[Gal(a1-3)]Gal(b1-4)GlcNAc(b1-2)Man(a1-6)]Man(b1-4)GlcNAc(b1-4)[Fuc(a1-6)]GlcNAc
# Method in brief: (§1)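 The binding signal is a Z-score computed within each array and averaged over linkers. Arrays of the same protein sequence at different concentrations or buffers were also averaged together. Data originate from 3228 arrays in the Consortium for Functional Glycomics database, kept only where the protein sequence was available.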
# [2] = target: Fuc(a1-2)[Gal(a1-3)]Gal(b1-4)GlcNAc(b1-3)GalNAc
# Method in brief: as §1
# [3] = target: Fuc(a1-2)[Gal(a1-3)]Gal(b1-4)GlcNAc(b1-3)[Fuc(a1-2)[Gal(a1-3)]Gal(b1-4)GlcNAc(b1-6)]GalNAc
# Method in brief: as §1
# [4] = target: Fuc(a1-2)[Gal(a1-3)]Gal(b1-4)GlcNAc(b1-6)GalNAc
# Method in brief: as §1
# [5] = target: Fuc(a1-2)[Gal(a1-3)]Gal(b1-4)[Fuc(a1-3)]Glc
# Method in brief: as §1
# [6] = target: Fuc(a1-2)[Gal(a1-3)]Gal(b1-4)[Fuc(a1-3)]GlcNAc
# Method in brief: as §1
# [7] = target: Fuc(a1-2)[Gal(a1-3)]Gal(b1-4)[Fuc(a1-3)]GlcNAc(b1-3)GalNAc
# Method in brief: as §1
# [8] = target: Fuc(a1-2)[Gal(a1-4)]Gal(b1-4)GlcNAc
# Method in brief: as §1
# [9] = target: Fuc(a1-2)[GalNAc(a1-3)]Gal
# Method in brief: as §1
# [10] = target: Fuc(a1-2)[GalNAc(a1-3)]Gal(b1-3)GalNAc(a1-3)[Fuc(a1-2)]Gal(b1-4)GlcNAc
# Method in brief: as §1
# [11] = target: Fuc(a1-2)[GalNAc(a1-3)]Gal(b1-3)GalNAc(b1-3)Gal(a1-4)Gal(b1-4)Glc
# Method in brief: as §1
# [12] = target: Fuc(a1-2)[GalNAc(a1-3)]Gal(b1-3)GlcNAc
# Method in brief: as §1
# [13] = target: Fuc(a1-2)[GalNAc(a1-3)]Gal(b1-3)GlcNAc(b1-2)Man(a1-3)[Fuc(a1-2)[GalNAc(a1-3)]Gal(b1-3)GlcNAc(b1-2)Man(a1-6)]Man(b1-4)GlcNAc(b1-4)GlcNAc
# Method in brief: as §1
# [14] = target: Fuc(a1-2)[GalNAc(a1-3)]Gal(b1-3)GlcNAc(b1-2)Man(a1-3)[Fuc(a1-2)[GalNAc(a1-3)]Gal(b1-3)GlcNAc(b1-2)Man(a1-6)]Man(b1-4)GlcNAc(b1-4)[Fuc(a1-6)]GlcNAc
# Method in brief: as §1
# [15] = target: Fuc(a1-2)[GalNAc(a1-3)]Gal(b1-3)GlcNAc(b1-3)GalNAc
# Method in brief: as §1
# [16] = target: Fuc(a1-2)[GalNAc(a1-3)]Gal(b1-3)GlcNAc(b1-6)GalNAc
# Method in brief: as §1
# [17] = target: Fuc(a1-2)[GalNAc(a1-3)]Gal(b1-4)Glc
# Method in brief: as §1
# [18] = target: Fuc(a1-2)[GalNAc(a1-3)]Gal(b1-4)GlcNAc
# Method in brief: as §1
# [19] = target: Fuc(a1-2)[GalNAc(a1-3)]Gal(b1-4)GlcNAc(b1-2)Man
# Method in brief: as §1
# [20] = target: Fuc(a1-2)[GalNAc(a1-3)]Gal(b1-4)GlcNAc(b1-2)Man(a1-3)[Fuc(a1-2)[GalNAc(a1-3)]Gal(b1-4)GlcNAc(b1-2)Man(a1-6)]Man(b1-4)GlcNAc(b1-4)GlcNAc
# Method in brief: as §1
# [21] = target: Fuc(a1-2)[GalNAc(a1-3)]Gal(b1-4)GlcNAc(b1-2)Man(a1-3)[Fuc(a1-2)[GalNAc(a1-3)]Gal(b1-4)GlcNAc(b1-2)Man(a1-6)]Man(b1-4)GlcNAc(b1-4)[Fuc(a1-6)]GlcNAc
# Method in brief: as §1
# [22] = target: Fuc(a1-2)[GalNAc(a1-3)]Gal(b1-4)GlcNAc(b1-3)Gal(b1-4)GlcNAc
# Method in brief: as §1
# [23] = target: Fuc(a1-2)[GalNAc(a1-3)]Gal(b1-4)GlcNAc(b1-3)Gal(b1-4)GlcNAc(b1-3)Gal(b1-4)GlcNAc
# Method in brief: as §1
# [24] = target: Fuc(a1-2)[GalNAc(a1-3)]Gal(b1-4)GlcNAc(b1-3)GalNAc
# Method in brief: as §1
# [25] = target: Fuc(a1-2)[GalNAc(a1-3)]Gal(b1-4)GlcNAc(b1-3)[Fuc(a1-2)[GalNAc(a1-3)]Gal(b1-4)GlcNAc(b1-6)]GalNAc
# Method in brief: as §1
# [26] = target: Fuc(a1-2)[GalNAc(a1-3)]Gal(b1-4)GlcNAc(b1-6)GalNAc
# Method in brief: as §1
# [27] = target: Fuc(a1-2)[GalNAc(a1-3)]Gal(b1-4)[Fuc(a1-3)]GlcNAc
# Method in brief: as §1
# [28] = target: Fuc(a1-2)[GalNAc(a1-3)]Gal(b1-4)[Fuc(a1-3)]GlcNAc(b1-3)GalNAc
# Method in brief: as §1
# [29] = target: Fuc(a1-2)[GalNAc(a1-4)]Gal(b1-4)GlcNAc
# Method in brief: as §1
# [30] = target: Fuc(a1-2)[GalNAc(b1-3)]Gal
# Method in brief: as §1
# Fuc(a1-3)GlcNAc = target: Fuc(a1-3)GlcNAc
# Method in brief: as §1
# [31] = target: Fuc(a1-3)[Gal(b1-4)]Glc6S
# Method in brief: as §1
# [32] = target: Fuc(a1-3)[Gal(b1-4)]GlcNAc
# Method in brief: as §1
# [33] = target: Fuc(a1-3)[Gal(b1-4)]GlcNAc(b1-2)Man
# Method in brief: as §1
# [34] = target: Fuc(a1-3)[Gal(b1-4)]GlcNAc(b1-2)Man(a1-3)[Fuc(a1-3)[Gal(b1-4)]GlcNAc(b1-2)Man(a1-6)]Man(b1-4)GlcNAc(b1-4)GlcNAc
# Method in brief: as §1
# [35] = target: Fuc(a1-3)[Gal(b1-4)]GlcNAc(b1-2)Man(a1-3)[Fuc(a1-3)[Gal(b1-4)]GlcNAc(b1-2)Man(a1-6)]Man(b1-4)GlcNAc(b1-4)[Fuc(a1-6)]GlcNAc
# Method in brief: as §1
# [36] = target: Fuc(a1-3)[Gal(b1-4)]GlcNAc(b1-3)Gal(b1-3)[Fuc(a1-4)]GlcNAc
# Method in brief: as §1
binder,measurement,setting,value
PX14379A-bvu-539-28-539 (Bacteroides vulgatus) (protein) EPYSEIIEEDYVPTEADEIALLATTYSQLRFVMDWYGLFDLQEESGDVIVTPTRPNGWDDGGTYKQMHKHTWDNQQGQPQSIWDYCYKGIANANKILKRADEGFFTEESKPKVVAEVKGVRALWYSILCDTHGNIPIQTSFSEEVPVQSTRKQVFDFIINELKEVMPNLPTEVNKSTYGRLTQWGAKCLMARMYLNAGVYTGTPMWNECLEQCNDIINSGLFSLETNYTDIFKTENSGCVETIFAIPYDEVYNEGDNNGPVFGAHMKFLSSNSRKVFNMQTTPWGGSAANPQFINSYDPDDMRLKYTWLQGDQYSPDGVLITTFPNKLPSIYKTDTDDGYRVGKYEIKVGAKSLLSNDFPYFRYTEVLLMKAECLLRLGQNETEAAHIVSQIRERAFRESAHPEKATVDAAWLKGDTHINYGTLDEKGQIDDAGNTEVVELGGLYDEWGWEFAAEARRRTDMIRFGTYQKKSWFNHTPTANDLNGNSILFPIHLDHLNTNPNLQQNPGYAGK,glycan array binding signal (z-score),[1],0.106
same,glycan array binding signal (z-score),[2],-0.384
same,glycan array binding signal (z-score),[3],-0.299
same,glycan array binding signal (z-score),[4],-0.194
same,glycan array binding signal (z-score),[5],-0.231
same,glycan array binding signal (z-score),[6],-0.355
same,glycan array binding signal (z-score),[7],0.191
same,glycan array binding signal (z-score),[8],-0.199
same,glycan array binding signal (z-score),[9],-0.215
same,glycan array binding signal (z-score),[10],-0.41
same,glycan array binding signal (z-score),[11],-0.369
same,glycan array binding signal (z-score),[12],0.086
same,glycan array binding signal (z-score),[13],1.23
same,glycan array binding signal (z-score),[14],-0.277
same,glycan array binding signal (z-score),[15],-0.225
same,glycan array binding signal (z-score),[16],-0.335
same,glycan array binding signal (z-score),[17],-0.321
same,glycan array binding signal (z-score),[18],-0.252
same,glycan array binding signal (z-score),[19],-0.314
same,glycan array binding signal (z-score),[20],-0.188
same,glycan array binding signal (z-score),[21],-0.596
same,glycan array binding signal (z-score),[22],-0.032
same,glycan array binding signal (z-score),[23],1.3
same,glycan array binding signal (z-score),[24],-0.292
same,glycan array binding signal (z-score),[25],-0.072
same,glycan array binding signal (z-score),[26],0.122
same,glycan array binding signal (z-score),[27],-0.02
same,glycan array binding signal (z-score),[28],-0.157
same,glycan array binding signal (z-score),[29],0
same,glycan array binding signal (z-score),[30],0.188
same,glycan array binding signal (z-score),Fuc(a1-3)GlcNAc,-0.265
same,glycan array binding signal (z-score),[31],-0.372
same,glycan array binding signal (z-score),[32],-0.403
same,glycan array binding signal (z-score),[33],-0.393
same,glycan array binding signal (z-score),[34],-0.05
same,glycan array binding signal (z-score),[35],0.815
same,glycan array binding signal (z-score),[36],-0.234
